Assay results from PubChem BioAssay AID720708 (National Center for Advancing Translational Sciences (NCATS), 2013).
Hit rate of the full screen: of about 360,000 compounds, about 660 (0.18%) were called active. Inconclusive means that the source gave no clear call. Such entries were picked first, then a sample of the others. Calls come from the whole dose curve; as a rule, active = well fitted inhibition curve with a large enough effect; inconclusive = small, poorly fitted or top-dose-only effect; inactive = no such curve, though single readings can be large or run the other way. No potency is given beside an inconclusive call; the fits are too rough.

Each compound was assayed against Rap guanine nucleotide exchange factor 4 (Homo sapiens) (UniProt Q8WZA2) (assay: qHTS for Antagonist of cAMP-regulated guanine nucleotide exchange factor 2 (EPAC2): primary screen). Conditions: EPAC2 GEF exchange of Rap1B-BODIPY-GDP, fluorescence; activity, negative = inhibition: at 114 µM (top of the series) unless noted.
Sequence of UniProt Q8WZA2 (Q8WZA2 whole entry, looked up): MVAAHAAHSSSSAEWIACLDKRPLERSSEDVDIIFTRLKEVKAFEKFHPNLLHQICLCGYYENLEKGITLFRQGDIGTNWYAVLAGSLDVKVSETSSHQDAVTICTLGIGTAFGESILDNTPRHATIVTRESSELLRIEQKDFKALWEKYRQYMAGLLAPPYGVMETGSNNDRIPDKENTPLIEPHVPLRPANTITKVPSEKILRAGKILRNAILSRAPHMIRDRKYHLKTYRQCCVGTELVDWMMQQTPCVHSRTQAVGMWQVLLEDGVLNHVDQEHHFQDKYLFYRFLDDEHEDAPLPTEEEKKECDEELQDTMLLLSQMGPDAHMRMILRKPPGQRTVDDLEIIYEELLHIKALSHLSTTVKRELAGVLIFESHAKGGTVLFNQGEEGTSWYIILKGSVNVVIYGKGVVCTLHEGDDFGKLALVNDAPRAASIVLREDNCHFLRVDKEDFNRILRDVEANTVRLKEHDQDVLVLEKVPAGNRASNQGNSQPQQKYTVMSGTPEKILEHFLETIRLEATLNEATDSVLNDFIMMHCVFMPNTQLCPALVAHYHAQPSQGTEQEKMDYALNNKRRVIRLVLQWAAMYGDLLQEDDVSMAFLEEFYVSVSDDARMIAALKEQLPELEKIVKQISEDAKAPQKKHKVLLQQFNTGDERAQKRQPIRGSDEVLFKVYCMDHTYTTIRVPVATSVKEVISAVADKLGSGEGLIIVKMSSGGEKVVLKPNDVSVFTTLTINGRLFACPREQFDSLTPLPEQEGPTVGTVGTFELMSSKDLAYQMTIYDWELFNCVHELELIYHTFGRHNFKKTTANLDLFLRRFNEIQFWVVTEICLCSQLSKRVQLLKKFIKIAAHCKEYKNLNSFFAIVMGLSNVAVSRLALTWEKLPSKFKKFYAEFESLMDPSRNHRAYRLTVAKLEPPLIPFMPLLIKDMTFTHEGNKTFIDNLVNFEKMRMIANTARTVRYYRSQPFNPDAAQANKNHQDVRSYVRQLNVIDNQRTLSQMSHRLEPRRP
% is set by controls: 0 for no effect and ±100 for the full control effect; potency is the fitted concentration of half-maximal effect; tags give direction and shape of the fitted curve.
Note: nearly all actives have a fitted effect of over 45% in size.

| Compound | Potency | activity, negative = inhibition |
| --- | --- | --- |
| CCOC(=O)c1ccc(NC(=O)C2CCCN(S(=O)(=O)c3cnc[nH]3)C2)cc1 (stereo not given) | inconclusive [inhibitor, full curve, poor fit] | – |
| CCCOc1ccc(C(=O)NC(=S)NNC(=O)c2c(-c3ccccc3)noc2C)cc1 | – | inactive: 10.5% |
| COc1ccc(C(C#N)=Cc2ccccc2OC)cc1 | inconclusive [inhibitor, full curve] | – |
| Cc1nc2c(OCc3ccc(C#N)cc3)cccn2c1N(C)C(=O)CCC1CCCC1 | inconclusive [inhibitor, single point] | – |
| CC1=NCCN1S(=O)(=O)c1c(C(C)C)cc(C(C)C)cc1C(C)C | active: 79.4 µM | – |
| CCOC(=O)c1ccc(NC(=O)C2CCN(C(=O)c3ccc(OC)c(OC)c3)CC2)cc1 | inconclusive [inhibitor, single point] | – |
| COC(=O)c1sc(NC(=S)NNC(=O)c2c(Br)c(C)nn2C)c(C(=O)OC)c1C | inconclusive [inhibitor, single point] | – |
| Cc1ccc(NC(=O)C2CCCN(C(=O)c3ccc(Cl)cc3)C2)cc1 (stereo not given) | – | inactive: -13% |
| CC(C)C[C@H](NC(=O)[C@H](Cc1ccccc1)n1c(=O)[nH]c2ccccc2c1=O)C(=O)N1CCC(C(=O)O)CC1 | inconclusive [inhibitor, single point] | – |
| CN(C)CCN(C(=O)/C=C/c1cccs1)c1nc2c(F)cc(F)cc2s1 | inconclusive [inhibitor, single point] | – |
| CCCCc1c(-c2ccc(Cl)cc2)ncn1CCc1ccccc1OC | inconclusive [inhibitor, partial curve] | – |
| Cc1cc(OCC(=O)N(C)Cc2ccccc2)ccc1Br | inconclusive [inhibitor, partial curve] | – |
| COc1ccc(CN(C(=O)c2snc(C(N)=O)c2N)C(CC(C)C)C(=O)NC2CCCCC2)cc1 (stereo not given) | inconclusive [inhibitor, partial curve] | – |
| COc1ccc(-c2cc(C)no2)cc1S(=O)(=O)Nc1cccc(C)c1 | inconclusive [inhibitor, partial curve] | – |
| O=c1c(O)c(-c2cccs2)oc2ccc(Cl)cc12 | – | inactive: 188% |
| O=c1c2ccccc2nnn1Cc1cccc2ccccc12 | inconclusive [inhibitor, full curve, poor fit] | – |
| COc1ccc(NC(=O)CN(C)C(=O)C2=NN(c3ccccc3)C(=O)CC2)cc1 | – | inactive: -3.03% |
| O=C(C=Cc1ccccc1Cl)c1ccccc1 | inconclusive [inhibitor, single point] | – |
| CCOC(=O)C1(Cc2ccccc2)CCCN(C(=O)C=C(C)C)C1 (stereo not given) | – | inactive: -2% |
| O=C(CN1CCCCCCC1)Nc1ccc(Cl)cc1Cl | inconclusive [inhibitor, partial curve] | – |
| C=CS(=O)(=O)c1sc(Cl)c(N2CCOCC2)c1[N+](=O)[O-] | inconclusive [inhibitor, single point] | – |
| COC(=O)c1cc(-c2c(C)oc3cc(OC(C)C)ccc3c2=O)c(C)o1 | – | inactive: 8.76% |
| CCOC(=O)CCn1nc(-c2ccc(C)cc2)c2ccccc2c1=O | inconclusive [inhibitor, partial curve] | – |

| Compound | Potency | activity, negative = inhibition |
| --- | --- | --- |
| COCCN(C(=S)Nc1ccc(C)cc1)C(C)c1cccnc1 (stereo not given) | inconclusive [inhibitor, partial curve] | – |
| Cc1ccc2nc(-c3ccco3)c(Cc3cccc(F)c3)n2c1 | inconclusive [inhibitor, partial curve] | – |
| Cc1csc(NC(=O)CSCC(=O)O)c1-c1nc2ccccc2s1 | inconclusive [inhibitor, full curve] | – |
| N#C/C(=C\c1ccc[nH]1)C(=O)Nc1ccccc1F | – | inactive: 0.11% |
| c1ccc(-c2ccc3ccccc3n2)cc1 | – | inactive: -11.7% |
| Cc1ccccc1C1(O)c2ccccc2-c2ccccc21 | inconclusive [inhibitor, partial curve] | – |
| CCc1cc2cc(C)cc(C)c2[nH]c1=S | – | inactive: 4.75% |
| CC(/C=N/N1CCN(c2ccccc2)CC1)=C\c1ccco1 | – | inactive: -1.21% |
| Cc1ccc(C(=O)OC(C)C(=O)c2cc(C)c(C)cc2C)o1 (stereo not given) | inconclusive [inhibitor, partial curve] | – |
| CC(C)Nc1ccc(-n2nc3ccccc3[n+]2[O-])cc1 | – | inactive: -16.6% |
| COc1ccccc1C(=O)N(Cc1ccccc1)c1ccc(C)cc1 | inconclusive [inhibitor, partial curve] | – |
| Cc1ccccc1N=C1SCC(=O)N1Cc1ccccc1 | inconclusive [inhibitor, partial curve] | – |
| CCC1(C)CC(CCN(Cc2ccco2)C(C)=O)(c2ccccc2)CCO1 (stereo not given) | inconclusive [inhibitor, partial curve] | – |
| CN(C)c1ccc(/C=C2/C[N+](C)(C)C/C(=C/c3ccc(N(C)C)cc3)C2=O)cc1 | inconclusive [inhibitor, partial curve] | – |
| C=CCn1c(SCC(=O)NC2CCCCC2)nnc1-c1ccccn1 | – | inactive: 5.95% |
| COc1nc(C)nc(Cl)c1NC1=NCCN1 | inconclusive [inhibitor, single point] | – |
| COc1cccc(C(C(=O)NC2CCCC2)N(Cc2ccc(C)cc2)C(=O)c2ccco2)c1OC (stereo not given) | inconclusive [inhibitor, full curve, poor fit] | – |
| CCOC(=O)c1c(N)sc(C(=O)Nc2ccccc2)c1C | inconclusive [inhibitor, partial curve] | – |
| COc1cc(O)c(C(CC(=O)N2CCN(c3ccccc3)CC2)c2ccc3c(c2)OCO3)c(OC)c1 (stereo not given) | inconclusive [inhibitor, full curve] | – |
| CCCCc1c(-c2cccc(F)c2)ncn1CCc1ccccc1OC | inconclusive [inhibitor, full curve] | – |
| COc1ccc2nc(SCC(=O)NCc3ccccc3)[nH]c2c1 | inconclusive [inhibitor, single point] | – |
| O[C@H]1C[C@H](c2ccccc2)N(CC2CCCCC2)C[C@@H]1n1cc(C2CC2)nn1 | inconclusive [inhibitor, partial curve] | – |
